# Laboratory results taken from the supplement of paper PMC9446081.
# In all, about 39,000 compounds went through this assay and about 220 (0.56%) showed activity. Some of the results follow.
# System: Escherichia coli K-12 BW25113
# Assay: relative growth (OD600 normalised to plate interquartile mean) (fraction); higher = less growth inhibition, active = 0.2 or less
# Conditions: 50 µM; LB; incubation time: overnight (16-24 h)
# 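Further: static incubation at 37 °C against the wild-type strain, values averaged over two biological replicates.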
row,Compound,relative growth
1,COCCn1cc2c(n1)[C@H](CNC(=O)CS(C)(=O)=O)OCC2,inactive: 0.998
2,COc1ccccc1-c1ccc2c(c1)O[C@@H](CN(C)C(=O)c1ccncc1)[C@H](C)CN([C@@H](C)CO)S2(=O)=O,inactive: 1.03
3,C[C@H]1CN([C@@H](C)CO)C(=O)c2cc(NS(=O)(=O)c3ccc(F)cc3)ccc2O[C@H]1CN(C)S(=O)(=O)c1ccc(F)cc1,inactive: 1.01
4,Cc1ccc(-c2cnc3c(c2)C(=O)N([C@@H](C)CO)C[C@@H](C)[C@H](CN(C)C(=O)Cc2cccnc2)O3)cc1,inactive: 0.987
5,CNCc1nc(C)no1,inactive: 1.03
6,O=C(C[C@H]1CC[C@@H]2[C@H](COC[C@H](O)CN2C(=O)c2ccccc2)O1)NCCCN1CCOCC1,inactive: 0.99
7,C[C@H](CO)N1C[C@H](C)[C@H](CN(C)Cc2ccc(Cl)c(Cl)c2)Oc2ccc(NC(=O)Nc3ccc4c(c3)OCO4)cc2C1=O,inactive: 1.01
8,C=CC1CN2CCC1CC2C(O)c1ccnc2ccc(OC)cc12 (stereo not given),inactive: 1.06
9,O=C(/C=C/c1ccccc1)C1CC1,inactive: 0.953
10,Cc1ccc(S(=O)(=O)N(C)C[C@H]2OCCCC[C@H](C)Oc3ccc(NC(=O)c4ccccc4)cc3C(=O)N([C@@H](C)CO)C[C@@H]2C)cc1,inactive: 1.02
11,C[C@H](CO)N1C[C@H](C)[C@@H](CN(C)CC2CCCCC2)OCCCC[C@H](C)Oc2ccc(NC(=O)Cc3ccccc3)cc2C1=O,inactive: 1
12,C[C@H]1CCCCO[C@@H](CN(C)C(=O)Nc2ccc(F)cc2)[C@@H](C)CN([C@@H](C)CO)C(=O)c2cc(NS(=O)(=O)c3ccc(Cl)cc3)ccc2O1,inactive: 1.01
13,C[C@H](C(=O)N(C)C[C@H]1OCc2ccccc2-c2c(n(C)c3ccccc23)C(=O)N([C@@H](C)CO)C[C@H]1C)c1ccccc1,inactive: 1.02
14,C[C@H](CO)N1C[C@H](C)[C@H](CN(C)S(=O)(=O)c2ccc(-n3cccn3)cc2)OCc2cn(nn2)CCCC1=O,inactive: 0.99
15,C[C@@H]1CN([C@H](C)CO)C(=O)c2cc(NC(=O)C3CCCCC3)ccc2O[C@@H]1CN(C)S(=O)(=O)c1cn(C)cn1,inactive: 0.982
16,C[C@@H]1CCCCO[C@@H](CN(C)Cc2ccc3c(c2)OCO3)[C@@H](C)CN([C@@H](C)CO)C(=O)c2cc(NC(=O)CCC(F)(F)F)ccc2O1,inactive: 1.02
17,C[C@@H]1CCCCO[C@@H](CN(C)C(=O)Nc2ccc(F)cc2)[C@@H](C)CN([C@@H](C)CO)C(=O)c2cc(NC(=O)Nc3cccc4ccccc34)ccc2O1,inactive: 1.05
18,C[C@@H]1CCCCO[C@@H](CN(C)Cc2ccc(F)cc2)[C@H](C)CN([C@@H](C)CO)C(=O)c2cc(NC(=O)Nc3ccccc3)ccc2O1,inactive: 1.03
19,CN(C)c1ccc2c(=O)[nH][nH]c(=O)c2c1,inactive: 0.998
20,C[C@H]1CN([C@@H](C)CO)C(=O)c2cc(NS(=O)(=O)c3ccc(Cl)cc3)ccc2O[C@H]1CN(C)C(=O)Nc1ccc(C(F)(F)F)cc1,inactive: 0.973
21,C[C@@H]1CN([C@@H](C)CO)C(=O)c2cc(NC(=O)c3ccccc3)ccc2O[C@@H](C)CCCCO[C@H]1CN(C)C(=O)Nc1cccc2ccccc12,inactive: 1.02
22,C=CC[C@H](CC(=O)NCCO)C(=O)N[C@H](COC(=O)[C@H](CC=C)CC(=O)OC(C)(C)C)Cc1c[nH]c2ccccc12,inactive: 0.996
23,O=C(O)C12C3CCC4C5C3C1C5(C(=O)O)C42 (stereo not given),inactive: 0.991
24,CCCNC(=O)N[C@H]1C=C[C@@H](CC(=O)N2CCN(C)CC2)O[C@H]1CO,inactive: 1.03
25,COc1ccc(NC(=O)N(C)C[C@H]2Oc3c(NC(=O)CCCCCC(=O)Nc4ccccc4N)cccc3C(=O)N([C@@H](C)CO)C[C@@H]2C)cc1,inactive: 0.931
26,C[C@H]1[C@@H](O)[C@@H](C)\C=C/C=C\C=C/C=C\C=C/C=C\C=C/[C@@H](O[C@H]2O[C@H](C)[C@@H](O)[C@H](N)[C@@H]2O)C[C@H]2O[C@](O)(C[C@@H](O)C[C@@H](O)[C@@H](O)CC[C@@H](O)C[C@@H](O)CC(=O)O[C@H]1C)C[C@@H](O)[C@@H]2C(=O)O,inactive: 1
27,Cc1noc(C)c1S(=O)(=O)N(C)C[C@H]1Oc2ccc(NS(C)(=O)=O)cc2CC(=O)N([C@@H](C)CO)C[C@H]1C,inactive: 1.03
28,CCC(=O)N1CCO[C@]2(COCCN(CC(=O)NC)C2)C1,inactive: 0.997
29,Cc1noc(C)c1NC(=O)N(C)C[C@H]1Oc2ccc(NC(=O)CCN3CCOCC3)cc2C(=O)N([C@H](C)CO)C[C@@H]1C,inactive: 0.968
30,C[C@H]1CCCCO[C@H](CN(C)C(=O)NC2CCCCC2)[C@@H](C)CN([C@@H](C)CO)C(=O)c2cc(NC(=O)NC3CCCCC3)ccc2O1,inactive: 1.02
